Experimental data reported in the supplement of paper PMC12217912.
The other results are listed elsewhere or left out. Sequences were assembled here from the parent chain. Inactive controls read about 0.05.

B1: TEV protease; numbered along this chain (parent)
chain: MGESLFKGPRDYNPISSSICHLTNESDGHTTSLYGIGFGPFIITNKHLFRRNNGTLVVQSLHGVFKVKDTTTLQQHLVDGRDMIIIRMPKDFPPFPQKLKFREPQREERICLVTTNFQTKSMSSMVSDTSCTFPSGDGIFWKHWIQTKDGQCGSPLVSTRDGFIVGIHSASNFTNTNNYFTSVPKNFMELLTNQEAQQWVSGWRLNADSVLWGGHKVFMVKPEEPFQPVKEATQL

Variants of: B1
Test: raw area under fraction-flipped curve 0-4 h after induction (AUC4h, not background-subtracted), DNA-recorder readout of cleavage of the substrate (dimensionless); higher = more cleavage of the substrate by the protease variant
Conditions: temperature: 34 °C; time window: 0-4 h after rhamnose induction
Protocol: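 In vivo DNA recorder in E. coli TOP10(DE3) ΔrhaA at 34 °C. Each TEVp single-site mutant (parent TEVp 0) is paired with a single-site variant of the 7-mer TEVs (canonical ENLYFQ|S). The substrate sits between flexible linkers in a Bxb1-sfGFP-TEVs-SsrA fusion, so cleavage stabilises Bxb1 and speeds flipping of a recombination array, read by NGS. The value is the raw area under the fraction-flipped curve over 0-4 h after rhamnose induction (AUC4h), with ≥20 reads per time point. It is not background-subtracted; inactive controls average about 0.047.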
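Further: Bxb1 expression induced with 0.2% (w/v) L-rhamnose at OD600 near 0.5, cultures sampled hourly, flipped fraction per protease–substrate barcode pair counted by paired-end Illumina sequencing.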

Variant | area with substrate ENLYFCS | area with substrate ENLYFFS | area with substrate ENLYFGS | area with substrate ENLYFHS | area with substrate ENLYFMS | area with substrate ENLYFNS | area with substrate ENLYFPS | area with substrate ENLYFRS | area with substrate ENLYFTS | area with substrate ENLYFES | area with substrate ENLYFIS | area with substrate ENLYFKS | area with substrate ENLYFWS | area with substrate ENLYFDS | area with substrate ENLYFSS | area with substrate ENLYFVS | area with substrate ENLYFYS | area with substrate ENLYFLS
F180T | 0.0486 | 0.0653 | 0.05 | 0.0554 | 0.0599 | 0.0351 | 0.0646 | 0.0292 | 0.049 | – | – | – | – | – | – | – | – | –
I36G | – | – | – | 0.0406 | – | – | 0.0466 | – | – | 0.0424 | 0.0365 | 0.0409 | 0.0368 | – | – | – | – | –
R50S | – | – | – | 0.0606 | – | 0.0594 | 0.0514 | – | 0.0466 | 0.0724 | – | – | – | 0.0665 | – | – | – | –
G2V | – | 0.0551 | – | – | 0.0743 | 0.0788 | – | 0.0364 | 0.0908 | – | 0.0576 | – | 0.0635 | 0.0575 | 0.0163 | 0.0466 | 0.0653 | –
N206W | 0.0532 | 0.0598 | – | 0.044 | 0.0603 | 0.0619 | 0.0631 | 0.0639 | 0.0557 | 0.0589 | 0.054 | – | – | 0.0321 | 0.065 | 0.0626 | 0.0576 | –
N206Q | 0.0634 | 0.0546 | – | – | 0.0571 | – | 0.0523 | – | – | 0.0813 | 0.0524 | – | – | 0.0782 | 0.0791 | 0.0506 | – | 0.0558
N206M | 0.0558 | – | – | – | 0.0664 | – | – | – | 0.0554 | – | 0.056 | – | 0.0591 | – | – | – | 0.0522 | 0.0517
F173V | 0.0657 | 0.0633 | – | – | 0.0648 | 0.0433 | – | 0.0549 | 0.0638 | 0.0574 | 0.0542 | 0.137 | 0.0529 | 0.0667 | 0.0663 | – | 0.0579 | 0.0268
W199A | 0.0904 | 0.0707 | – | – | 0.0611 | 0.0706 | 0.0632 | – | 0.067 | 0.0767 | – | – | – | – | – | – | – | –
W199K | 0.0594 | – | – | 0.071 | 0.0585 | 0.0607 | 0.0697 | – | 0.0559 | 0.0515 | 0.0496 | – | – | – | – | – | – | –
R51T | – | 0.0687 | – | 0.0376 | – | 0.0593 | 0.0612 | 0.0444 | 0.0501 | 0.0789 | 0.0681 | – | – | – | – | – | – | –
S201T | – | – | – | 0.0506 | – | 0.0652 | 0.0591 | 0.0592 | – | 0.0663 | – | 0.0559 | 0.0568 | 0.0534 | – | 0.0682 | – | –
S201M | 0.0611 | 0.0659 | – | 0.0747 | 0.0737 | 0.0617 | 0.0527 | 0.0608 | – | 0.0744 | 0.0573 | – | 0.067 | 0.0844 | 0.0548 | – | 0.0624 | –
V220K | 0.0549 | 0.08 | – | 0.0679 | 0.0663 | – | 0.0587 | – | 0.0657 | 0.0607 | 0.0506 | 0.0641 | – | 0.0544 | – | 0.049 | – | 0.0717
F187K | – | – | – | 0.0557 | 0.0061 | – | 0.0336 | – | – | – | 0.057 | – | – | 0.0487 | 0.0482 | – | 0.036 | –
F187V | 0.0644 | – | – | 0.0642 | 0.0326 | – | 0.0579 | 0.0501 | 0.068 | – | – | – | – | 0.041 | 0.041 | – | – | –
P228T | 0.0553 | – | – | – | 0.0695 | 0.0597 | 0.0717 | – | – | 0.0883 | – | – | 0.053 | – | 0.0503 | – | 0.0498 | 0.0634
P228I | 0.0629 | 0.0651 | – | – | – | – | – | 0.0635 | 0.0664 | 0.0715 | – | – | – | – | – | – | – | 0.0238

Variant | area with substrate ENLYFCS | area with substrate ENLYFFS | area with substrate ENLYFGS | area with substrate ENLYFHS | area with substrate ENLYFMS | area with substrate ENLYFNS | area with substrate ENLYFPS | area with substrate ENLYFRS | area with substrate ENLYFTS | area with substrate ENLYFES | area with substrate ENLYFIS | area with substrate ENLYFKS | area with substrate ENLYFWS | area with substrate ENLYFDS | area with substrate ENLYFSS | area with substrate ENLYFVS | area with substrate ENLYFYS | area with substrate ENLYFLS
T181Q | 0.0675 | – | 0.0575 | 0.0623 | 0.063 | 0.0695 | 0.0407 | – | 0.056 | 0.0766 | 0.0523 | – | 0.0574 | – | – | – | – | –
G54P | – | 0.0624 | – | – | – | – | 0.0763 | – | – | 0.0845 | – | – | 0.0437 | – | – | 0.0546 | – | –
N177W | – | 0.057 | – | 0.0614 | 0.0728 | 0.0693 | – | 0.0523 | 0.0673 | – | 0.0579 | – | 0.0608 | 0.0732 | 0.0487 | – | – | –
T233V | – | – | 0.073 | – | 0.0603 | 0.0596 | 0.0499 | 0.0763 | 0.0547 | 0.0675 | 0.0575 | 0.0657 | 0.0624 | 0.0458 | – | – | 0.0525 | –
W212Y | 0.0585 | 0.0887 | 0.0538 | 0.0449 | 0.0946 | – | 0.0578 | 0.0366 | – | – | 0.0405 | 0.0737 | – | – | 0.0712 | 0.0491 | – | 0.0655
L235V | – | 0.0478 | – | – | – | – | 0.0918 | – | – | 0.0525 | 0.0632 | – | 0.055 | 0.0634 | – | – | – | 0.0564
G214H | 0.0435 | – | – | – | – | – | 0.0344 | – | – | – | – | – | 0.0571 | – | – | – | – | –
G214L | 0.0689 | 0.0538 | – | – | 0.058 | – | 0.0519 | 0.0525 | 0.0647 | – | 0.0393 | 0.0502 | 0.0461 | 0.0461 | – | – | – | –
L33A | – | 0.101 | – | – | – | 0.0558 | 0.0477 | 0.0539 | – | – | 0.0543 | – | – | 0.063 | – | 0.0668 | – | –
F6C | – | 0.0614 | – | – | 0.0631 | – | 0.0683 | – | – | 0.0472 | – | – | – | – | – | – | – | –
H215Y | 0.065 | 0.0735 | – | – | 0.0745 | – | 0.0518 | 0.0605 | – | – | 0.0467 | – | 0.0385 | 0.0583 | – | – | 0.0409 | –
K216Y | – | 0.0674 | 0.0527 | – | 0.0073 | 0.0634 | 0.0605 | 0.131 | – | 0.0557 | 0.0371 | – | 0.0512 | 0.0614 | 0.052 | – | 0.0726 | 0.0772
A232I | 0.0584 | – | 0.0575 | 0.0259 | – | – | – | – | 0.0627 | 0.0556 | – | 0.0663 | – | – | 0.0563 | – | – | –
F49L | – | 0.0525 | – | 0.0436 | 0.0575 | 0.0634 | 0.0661 | 0.0549 | 0.0489 | 0.0433 | 0.0577 | 0.0627 | – | 0.0437 | 0.0431 | – | 0.0571 | –
I84K | – | – | 0.0586 | 0.112 | 0.0562 | 0.06 | 0.057 | 0.0669 | 0.0513 | 0.061 | 0.055 | – | 0.0404 | 0.062 | – | – | – | –
K221P | 0.0507 | 0.0622 | 0.0492 | 0.059 | 0.0581 | 0.0682 | 0.0602 | 0.0742 | – | – | 0.0574 | 0.0367 | 0.0585 | – | 0.0823 | 0.0548 | 0.087 | 0.062
Q118E | – | – | – | 0.0567 | – | 0.0617 | 0.0583 | 0.0836 | 0.0837 | 0.0658 | 0.0579 | – | – | 0.063 | – | – | – | 0.0635
T119N | – | 0.079 | 0.0457 | 0.057 | – | – | 0.0554 | – | – | 0.0638 | – | 0.0734 | 0.044 | 0.0535 | – | – | 0.0424 | 0.0659
